The text below walks through data of article PMC9554868.

Assay in all cases: co-IP
Test [1] deals with Zaire ebolavirus (EBOV) glycoprotein GP1,2 (Zaire ebolavirus (EBOV)) (UniProt Q05320).
In test [2] the target is EBOV nonstructural soluble GP (sGP) (Zaire ebolavirus (EBOV)) (UniProt P60170).
Test [3] addresses RING finger protein 26 (RNF26), wild type, Myc-FLAG-tagged (UniProt Q9BY78).

Results are given in words; binding and its absence hold for the method and conditions named. Binding seen in cells or lysates may run through a third protein. Some binding calls cover weakened binding; strength is not graded here.

On to “calreticulin (CALR), Myc-tagged (from UniProt P27797 18-417)”, for which the binding result in test [1], in test [2] and in test [3] was “binds” throughout.
In the case of “protein disulfide isomerase family A member 3 (PDIA3/ERp57), Myc-tagged (from UniProt P30101 25-505)”, the binding result in test [3] was “no binding”.
